# From the supplement of paper PMC10037445
# In all, about 2,900 compounds were measured (“NF-kB SEAP reporter activity, fold change vs agonist alone”: median about 0.99, highest 2% from about 2.6 on). The list shows a part of the results.
# What was measured:
# RAW-Dual [1] = test: NF-kB SEAP reporter activity, fold change vs agonist alone; cytotoxicity flag (confluency mask): not cytotoxic; higher = enhanced NF-kB activity
# Method in brief: (§1)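 RAW-Dual macrophages were seeded in DMEM at 50,000 cells/well in 384-well plates, given 50 nL of library stock by pin tool, and given a PRR agonist 1 h later. Plates were held at 37 °C, 5% CO2 for 20 hours, after which supernatant was read for IRF by QuantiLuc luminescence and for NF-κB by QuantiBlue absorbance at 620 nm. Reporter activity is expressed as fold change over wells that received agonist alone. A well was called cytotoxic when IncuCyte confluency fell below 70% of agonist controls in both mask sets.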
# RAW-Dual [2] = test: NF-kB SEAP reporter activity, fold change vs agonist alone; cytotoxicity flag (confluency mask): cytotoxic (confluency <70% of control); higher = enhanced NF-kB activity
# Method in brief: as §1
# RAW-Dual [3] = test: NF-kB SEAP reporter activity, fold change vs agonist alone; higher = enhanced NF-kB activity
# Method in brief: as §1
# [4] = agonist: ODN 1826 (TLR9) 0.5 ug/mL
# [5] = agonist: Pam2CSK4 (TLR2/6) 0.1 ug/mL
# [6] = agonist: Pam3CSK4 (TLR2/1) 0.1 ug/mL
# [7] = library stock concentration (final ~1000-fold dilution): 10 mM, cytotoxicity flag (confluency mask): cytotoxic (confluency <70% of control), agonist: Imiquimod (TLR7) […]
# [8] = library stock concentration (final ~1000-fold dilution): 10 mM, cytotoxicity flag (confluency mask): cytotoxic (confluency <70% of control), agonist: MPLA (TLR4) […]
# [9] = library stock concentration (final ~1000-fold dilution): 10 mM, cytotoxicity flag (confluency mask): not cytotoxic, agonist: Imiquimod (TLR7) […]
# [10] = library stock concentration (final ~1000-fold dilution): 10 mM, cytotoxicity flag (confluency mask): not cytotoxic, agonist: MPLA (TLR4) […]
compound,measurement,setting,value
COc1ccc(-c2nc(-c3cc(C(F)(F)F)cc(C(F)(F)F)c3)n(Cc3ccc(C(N)=O)cc3)c2-c2ccc(OC)cc2)cc1 (library stock concentration (final ~1000-fold dilution): 10 mM),NF-kB SEAP reporter activity,RAW-Dual [1]; agonist: LPS (TLR4) 0.1 ug/mL,0.925
same,NF-kB SEAP reporter activity,RAW-Dual [1]; [4],0.356
same,NF-kB SEAP reporter activity,RAW-Dual [1]; [5],0.168
same,NF-kB SEAP reporter activity,RAW-Dual [1]; [6],0.127
Cc1sc2c(c1C)C(c1ccc(Cl)cc1)=N[C@@H](CC(=O)NCCCCCCCCNC(=O)COc1cccc3c1C(=O)N(C1CCC(=O)NC1=O)C3=O)c1nnc(C)n1-2 (stereo partly specified) (library stock concentration (final ~1000-fold dilution): 10 mM),NF-kB SEAP reporter activity,RAW-Dual [2]; agonist: LPS (TLR4) 0.1 ug/mL,3.73
same,NF-kB SEAP reporter activity,RAW-Dual [2]; [4],1.84
same,NF-kB SEAP reporter activity,RAW-Dual [2]; [5],1.74
same,NF-kB SEAP reporter activity,RAW-Dual [2]; [6],3
Cc1sc2c(c1C)C(c1ccc(Cl)cc1)=N[C@@H](CC(=O)NCCCCCCCCNC(=O)COc1cccc3c1C(=O)N(C1CCC(=O)NC1=O)C3=O)c1nnc(C)n1-2 (stereo partly specified),NF-kB SEAP reporter activity,RAW-Dual [3]; [7],1.73
same,NF-kB SEAP reporter activity,RAW-Dual [3]; [8],2.44
CC(C)C(CO)Nc1nc(Nc2cccc(Cl)c2)c2ncn(C(C)C)c2n1 (stereo unspecified),NF-kB SEAP reporter activity,RAW-Dual [3]; [9],1.19
same,NF-kB SEAP reporter activity,RAW-Dual [3]; [10],1.14
CC(C)C(CO)Nc1nc(Nc2cccc(Cl)c2)c2ncn(C(C)C)c2n1 (stereo unspecified) (library stock concentration (final ~1000-fold dilution): 10 mM),NF-kB SEAP reporter activity,RAW-Dual [1]; agonist: LPS (TLR4) 0.1 ug/mL,0.715
same,NF-kB SEAP reporter activity,RAW-Dual [1]; [4],1.05
same,NF-kB SEAP reporter activity,RAW-Dual [1]; [5],1.22
same,NF-kB SEAP reporter activity,RAW-Dual [1]; [6],0.679
CNC(=O)c1ccc(Nc2ncc(C(F)(F)F)c(NCc3nccnc3N(C)S(C)(=O)=O)n2)cc1 (library stock concentration (final ~1000-fold dilution): 2 mM),NF-kB SEAP reporter activity,RAW-Dual [1]; agonist: LPS (TLR4) 0.1 ug/mL,1.96
same,NF-kB SEAP reporter activity,RAW-Dual [1]; [4],0.888
same,NF-kB SEAP reporter activity,RAW-Dual [1]; [5],1.12
same,NF-kB SEAP reporter activity,RAW-Dual [1]; [6],1.47
CNC(=O)c1ccc(Nc2ncc(C(F)(F)F)c(NCc3nccnc3N(C)S(C)(=O)=O)n2)cc1,NF-kB SEAP reporter activity,"RAW-Dual [3]; library stock concentration (final ~1000-fold dilution): 2 mM, cytotoxicity flag (confluency mask): not cytotoxic, agonist: Imiquimod (TLR7) […]",0.85
same,NF-kB SEAP reporter activity,"RAW-Dual [3]; library stock concentration (final ~1000-fold dilution): 2 mM, cytotoxicity flag (confluency mask): not cytotoxic, agonist: MPLA (TLR4) […]",1.07
Cc1cc2c(s1)Nc1ccccc1N=C2N1CCN(C)CC1 (library stock concentration (final ~1000-fold dilution): 10 mM),NF-kB SEAP reporter activity,RAW-Dual [1]; agonist: LPS (TLR4) 0.1 ug/mL,0.923
same,NF-kB SEAP reporter activity,RAW-Dual [1]; [4],0.288
same,NF-kB SEAP reporter activity,RAW-Dual [1]; [5],1.05
same,NF-kB SEAP reporter activity,RAW-Dual [1]; [6],1.03
Cc1cc2c(s1)Nc1ccccc1N=C2N1CCN(C)CC1,NF-kB SEAP reporter activity,RAW-Dual [3]; [9],0.855
same,NF-kB SEAP reporter activity,RAW-Dual [3]; [10],1.02
CCN(CC)CCOC(=O)c1ccc(N)cc1.Cl,NF-kB SEAP reporter activity,RAW-Dual [3]; [9],0.904
same,NF-kB SEAP reporter activity,RAW-Dual [3]; [10],1.06
CCN(CC)CCOC(=O)c1ccc(N)cc1.Cl (library stock concentration (final ~1000-fold dilution): 10 mM),NF-kB SEAP reporter activity,RAW-Dual [1]; agonist: LPS (TLR4) 0.1 ug/mL,1.16
same,NF-kB SEAP reporter activity,RAW-Dual [1]; [4],0.957
same,NF-kB SEAP reporter activity,RAW-Dual [1]; [5],1.09
same,NF-kB SEAP reporter activity,RAW-Dual [1]; [6],1.11
CN1C(=O)C(Cc2c[nH]c3ccccc23)NC1=S (stereo unspecified),NF-kB SEAP reporter activity,RAW-Dual [3]; [9],0.924
same,NF-kB SEAP reporter activity,RAW-Dual [3]; [10],1.01
CN1C(=O)C(Cc2c[nH]c3ccccc23)NC1=S (stereo unspecified) (library stock concentration (final ~1000-fold dilution): 10 mM),NF-kB SEAP reporter activity,RAW-Dual [1]; agonist: LPS (TLR4) 0.1 ug/mL,1.08
same,NF-kB SEAP reporter activity,RAW-Dual [1]; [4],0.938
same,NF-kB SEAP reporter activity,RAW-Dual [1]; [5],1.13
same,NF-kB SEAP reporter activity,RAW-Dual [1]; [6],1.21
CN1CCN2c3ccccc3Cc3ccccc3C2C1.Cl (stereo unspecified),NF-kB SEAP reporter activity,RAW-Dual [3]; [9],1.32
same,NF-kB SEAP reporter activity,RAW-Dual [3]; [10],1.13
CN1CCN2c3ccccc3Cc3ccccc3C2C1.Cl (stereo unspecified) (library stock concentration (final ~1000-fold dilution): 10 mM),NF-kB SEAP reporter activity,RAW-Dual [1]; agonist: LPS (TLR4) 0.1 ug/mL,1.08
same,NF-kB SEAP reporter activity,RAW-Dual [1]; [4],0.732
same,NF-kB SEAP reporter activity,RAW-Dual [1]; [5],0.813
same,NF-kB SEAP reporter activity,RAW-Dual [1]; [6],0.995
C=C1c2cccc(O)c2C(=O)C2=C(O)C3(O)C(=O)C(C(N)=O)=C(O)C(N(C)C)C3C(O)C12.Cl (stereo unspecified) (library stock concentration (final ~1000-fold dilution): 10 mM water),NF-kB SEAP reporter activity,RAW-Dual [1]; agonist: LPS (TLR4) 0.1 ug/mL,1.12
same,NF-kB SEAP reporter activity,RAW-Dual [1]; [4],1.14
same,NF-kB SEAP reporter activity,RAW-Dual [1]; [5],1.26
same,NF-kB SEAP reporter activity,RAW-Dual [1]; [6],1.05
C=C1c2cccc(O)c2C(=O)C2=C(O)C3(O)C(=O)C(C(N)=O)=C(O)C(N(C)C)C3C(O)C12.Cl (stereo unspecified),NF-kB SEAP reporter activity,"RAW-Dual [3]; library stock concentration (final ~1000-fold dilution): 10 mM water, cytotoxicity flag (confluency mask): not cytotoxic, agonist: Imiquimod (TLR7) […]",0.915
same,NF-kB SEAP reporter activity,"RAW-Dual [3]; library stock concentration (final ~1000-fold dilution): 10 mM water, cytotoxicity flag (confluency mask): not cytotoxic, agonist: MPLA (TLR4) […]",1.08
CCN(CC)CCOc1ccc(Nc2ncc3cc(-c4c(Cl)cccc4Cl)c(=O)n(C)c3n2)cc1,NF-kB SEAP reporter activity,RAW-Dual [3]; [7],0.492
same,NF-kB SEAP reporter activity,RAW-Dual [3]; [8],0.332
CCN(CC)CCOc1ccc(Nc2ncc3cc(-c4c(Cl)cccc4Cl)c(=O)n(C)c3n2)cc1 (library stock concentration (final ~1000-fold dilution): 10 mM),NF-kB SEAP reporter activity,RAW-Dual [2]; agonist: LPS (TLR4) 0.1 ug/mL,0.238
same,NF-kB SEAP reporter activity,RAW-Dual [2]; [4],0.236
same,NF-kB SEAP reporter activity,RAW-Dual [2]; [5],0.0747
same,NF-kB SEAP reporter activity,RAW-Dual [2]; [6],0.145
CS(=O)(=O)c1ccc(-c2cnc(NCc3ccco3)n3cnnc23)cc1,NF-kB SEAP reporter activity,RAW-Dual [3]; [9],0.866
same,NF-kB SEAP reporter activity,RAW-Dual [3]; [10],1.06
CS(=O)(=O)c1ccc(-c2cnc(NCc3ccco3)n3cnnc23)cc1 (library stock concentration (final ~1000-fold dilution): 10 mM),NF-kB SEAP reporter activity,RAW-Dual [1]; agonist: LPS (TLR4) 0.1 ug/mL,1.09
same,NF-kB SEAP reporter activity,RAW-Dual [1]; [4],0.968
same,NF-kB SEAP reporter activity,RAW-Dual [1]; [5],0.796
same,NF-kB SEAP reporter activity,RAW-Dual [1]; [6],1.14
CCn1nc(C2CCN(C(=O)CCO)CC2)nc1-c1cnc(N)c(-c2nnc(C(C)(C)C)o2)n1,NF-kB SEAP reporter activity,RAW-Dual [3]; [9],0.872
same,NF-kB SEAP reporter activity,RAW-Dual [3]; [10],1.18
CCn1nc(C2CCN(C(=O)CCO)CC2)nc1-c1cnc(N)c(-c2nnc(C(C)(C)C)o2)n1 (library stock concentration (final ~1000-fold dilution): 10 mM),NF-kB SEAP reporter activity,RAW-Dual [1]; agonist: LPS (TLR4) 0.1 ug/mL,1.61
same,NF-kB SEAP reporter activity,RAW-Dual [1]; [4],1.1
same,NF-kB SEAP reporter activity,RAW-Dual [1]; [5],1.15
same,NF-kB SEAP reporter activity,RAW-Dual [1]; [6],1
Cc1nc2cc(F)c(F)cc2n1-c1cncc(Nc2ccc(C(F)(F)F)cc2)n1 (library stock concentration (final ~1000-fold dilution): 10 mM),NF-kB SEAP reporter activity,RAW-Dual [1]; agonist: LPS (TLR4) 0.1 ug/mL,1.36
same,NF-kB SEAP reporter activity,RAW-Dual [1]; [4],1.31
same,NF-kB SEAP reporter activity,RAW-Dual [1]; [5],0.571
same,NF-kB SEAP reporter activity,RAW-Dual [1]; [6],0.582
Cc1nc2cc(F)c(F)cc2n1-c1cncc(Nc2ccc(C(F)(F)F)cc2)n1,NF-kB SEAP reporter activity,RAW-Dual [3]; [9],1.56
same,NF-kB SEAP reporter activity,RAW-Dual [3]; [10],1.33
COc1cc2ncnc(Nc3ccc(F)c(Cl)c3)c2cc1OCCCN1CCOCC1.Cl (library stock concentration (final ~1000-fold dilution): 10 mM),NF-kB SEAP reporter activity,RAW-Dual [1]; agonist: LPS (TLR4) 0.1 ug/mL,1.23
same,NF-kB SEAP reporter activity,RAW-Dual [1]; [4],0.277
same,NF-kB SEAP reporter activity,RAW-Dual [1]; [5],0.967
same,NF-kB SEAP reporter activity,RAW-Dual [1]; [6],0.737
COc1cc2ncnc(Nc3ccc(F)c(Cl)c3)c2cc1OCCCN1CCOCC1.Cl,NF-kB SEAP reporter activity,RAW-Dual [3]; [10],1.29
